# Experimental data taken from PMC12040169 (PLOS Biology, 2025).
# Some of the results follow.
# Test system: T1, C. trachomatis L2/434/Bu expressing GFP (CTL2-GFP)
# T1 construct: L2/434/Bu GFP intracellular growth in HeLa cells
# Parameters: species or system HeLa; C. trachomatis total inclusion area by high-content imaging, normalised to DMSO
# Conditions: total inclusion area; 28.5 h, 10 µM; inhibitor
# Outline: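 After bulk GFP and resorufin fluorescence reads, cells were fixed, stained with Hoechst and imaged by high-content microscopy. Inclusion area and number (GFP) stood in for chlamydial growth, nuclei count (Hoechst) for host cell viability. MICs were derived as for the bulk readout.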
row,SMILES,% of control remaining
1,C=CCn1c(Cc2csc(NC(=O)c3cc4ccccc4o3)n2)n[nH]c1=S [CBK295329],117.07
2,Cc1nnc(-c2cccc(S(=O)(=O)n3ccn(-c4cccc(C(F)(F)F)c4)c3=O)c2)o1 [CBK106592],120.905
3,COc1ccc(C)c(NC(=O)NCCc2c[nH]cn2)c1 [CBK269992],102.931
4,CCn1cc(C(=O)NC2CC3(CCCC3)Oc3ccccc32)c(C)n1 (stereo not drawn) [CBK282340],97.1535
5,Cc1nc2c(c(N(C)C)n1)CCN(C(=O)c1cnn(C(C)C)c1)C2 [CBK307083],37.2798
6,CC(CCc1ccccc1)NC(=O)CCC(=O)O (stereo not drawn) [CBK267918],103.112
7,COc1ccc(C2N(N3C(=O)CC(=O)NC3=O)C(=O)CS2(=O)=O)cc1OC (stereo not drawn) [CBK012702],38.4743
8,CN(Cc1ccccc1NCCn1c(=O)oc2ccccc21)C1CCCCC1 [CBK296678],52.5872
9,N=C(N)NS(=O)(=O)c1ccc(N/C=C\C(=O)c2ccc3ccccc3c2)cc1 [CBK263374],59.9607
10,N=C(Nc1nc(=O)cc(CSc2ccc(Cl)cc2)[nH]1)Nc1cccc2ccccc12 [CBK266504],127.778
11,O=C(O)CNC(=O)Cn1ccc2cc(OCc3ccccc3)ccc21 [CBK286665],81.6031
12,CC(=O)Nc1ccc(-n2cc(COC3CCN(C(=O)OC(C)(C)C)CC3)nn2)cc1 [CBK149481],93.3265
13,CCc1nc2c(Oc3nc4ccccc4s3)cccn2c1N(C=O)Cc1ccc(OC)cc1 [CBK147819],81.4391
14,CN(C)CCN1CCN(c2nc(-c3cccc(C(N)=O)c3)cnc2N)CC1 [CBK063537],79.4887
15,O=C(O)CCC(=O)Nc1ccccc1C(=O)N1CCCCCC1 [CBK269863],124.978
16,Cc1cc(CNC(=O)COc2cc(Cl)ccc2Cl)c2ccccc2n1 [CBK269788],66.4495
17,CC(C)(C)c1ccnc(N[C@H]2CO[C@H]3[C@@H]2OC[C@@H]3NC(=O)c2cccs2)n1 [CBK289520],80.8205
18,COc1ccc(C(=O)Nc2ccc(N3CCOCC3)c(Cl)c2)cc1[N+](=O)[O-] [CBK263894],78.1899
19,Cc1cc(C(=O)N2CCCCCC2c2nn(C)cc2Cl)on1 (stereo not drawn) [CBK285121],100.996
20,O=C(OCc1ccc(Br)cc1)c1ccccc1S(=O)(=O)c1ccccc1[N+](=O)[O-] [CBK265718],114.45
21,Cc1cccc(C)c1NC(=O)CSc1nnc(C(O)c2ccccc2)n1C (stereo not drawn) [CBK269742],99.6715
22,O=C(CSc1nnc(-c2ccco2)n1-c1ccccc1)NCc1ccc2c(c1)OCO2 [CBK267308],106.106
23,CC(C)(C)c1cc(NC(=O)C(C)(C)S(=O)(=O)c2ccc(C(F)(F)F)cn2)no1 [CBK006849],82.2313
24,COc1ccc(F)c(CNCCNC(=O)OC(C)(C)C)c1 [CBK056699],88.7493
25,COc1cccc(CN2CCOC3(CCN(C(=O)OCc4ccccc4)CC3)C2)c1 [CBK161098T],114.305
26,COC(=O)C1(Cc2ccccc2-c2ccncc2)CCNC1 (stereo not drawn) [CBK281435],104.453

row,SMILES,% of control remaining
1,CC(C)(C)COC(=O)N1CCC(N2CCOc3ccc(-c4ccc(S(C)(=O)=O)cc4)cc3C2)CC1 [CBK169264],79.2717
2,NS(=O)(=O)c1ccc2c(c1)N(Cc1nc(-c3ccco3)no1)CC2 [CBK304291],109.332
3,CCCSc1nnc(-c2c(Cl)c(CC)nn2C)s1 [CBK026135],92.6102
4,CCCCCCOC(=O)c1ccc2c(c1)C(=O)N(c1cccc(N)c1)C2=O [CBK157034],103.982
5,COCCN1CCn2c(nc3cc(NC(=O)c4cccc([N+](=O)[O-])c4)ccc32)C1 [CBK267965],96.3459
6,O=C(Nc1cccc(N2CCCC2=O)c1)c1ccccc1Nc1ccccc1 [CBK297729],93.7908
7,CC(=O)c1ccc(NC(=O)CSc2nc(O)cc(-c3ccccc3)n2)cc1 [CBK269048],81.5975
8,Cn1c(=O)c2[nH]c(-c3ccc(OCC(=O)NCCc4ccccc4)cc3)nc2n(C)c1=O [CBK269092],100.227
9,COc1ccc(C2NC(C(=O)O)CS2)cc1CN1C[C@@H]2C[C@H](C1)c1cccc(=O)n1C2 (stereo partly drawn) [CBK020798],105.955
10,CN1CCC(C(=O)NC(=O)Nc2ccccc2F)CC1 [CBK034827],91.3707
11,O=C1c2ccccc2NC(c2cccc(O)c2)N1O (stereo not drawn) [CBK288426],89.8053
12,CN(C)c1ccc(C(=O)N2CCC(c3cc4ncccc4[nH]3)CC2)cc1 [CBK284459],110.871
13,CCN(C(C)COC)S(=O)(=O)c1ccc(-n2ncc(Cl)c(Cl)c2=O)cc1 (stereo not drawn) [CBK305662],1.307
14,O=C(Oc1c(Cl)cc(Cl)c2cccnc12)c1cc(S(=O)(=O)N2CCCCC2)ccc1Cl [CBK264518],96.3092
15,S=C1NCN(Cc2ccccc2)CN1c1ccccc1 [CBK263536],101.237
16,O=C(Nc1cccc(Cl)c1)C1CCC(C(=O)Nc2cccc(Cl)c2)CC1 (stereo not drawn) [CBK269136],83.5848
17,CC(C)Cc1ccc(C(C)c2nc3ccccc3[nH]2)cc1 (stereo not drawn) [CBK261484],90.2618
18,CN1C(=O)CC2(C1=O)C(=O)N(CC(=O)c1ccccc1)c1ccc(F)cc12 (stereo not drawn) [CBK075420],114.045
19,O=C(c1ccccc1NS(=O)(=O)c1cccc2cccnc12)N1CCOCC1 [CBK043338],84.9538
20,CCOC(=O)CC1C(=O)NCCN1Cc1cccc(C)n1 (stereo not drawn) [CBK269965],97.559
21,O=C(CN1CCCC2(CCN(C(=O)c3cc(F)c(F)cc3F)C2)C1)Nc1ccc(F)c(Cl)c1 (stereo not drawn) [CBK132008],64.4211
22,COc1ccc2[nH]cc(CC(=O)N3CCCC4(CCN(C(=O)c5cc(F)c(F)cc5F)C4)C3)c2c1 (stereo not drawn) [CBK131562],118.357
23,C=CCNC(=O)C1CN(C)CC12CCc1ccccc1C(=O)N2 (stereo not drawn) [CBK282401],105.115
24,O=C(CSc1nnc2ccc(-c3ccccc3)nn12)NCc1ccccc1 [CBK287677],7.966
25,COc1ccc(C(Nc2ccnc(OC)c2C#N)[C@H]2C[C@@H](O)C2)cn1 (stereo partly drawn) [CBK306980],51.5387
26,CCc1[nH]c2ccc(C(=O)NC3CCCOC3)cc2c1C (stereo not drawn) [CBK283247],109.361

row,SMILES,% of control remaining
1,O=C(O)CC(NCc1ccccc1)C(=O)Nc1cccc(F)c1 (stereo not drawn) [CBK266956],104.544
2,CCC(C)(C)c1ccc(S(=O)(=O)N2CCCN(Cc3cccc4c3OCO4)CC2)cc1 [CBK062872],96.2382
3,Cc1ccc2c(c1)C1(CC(=O)N(CC(=O)O)C1=O)C(=O)N2C (stereo not drawn) [CBK076104],62.1116
4,Cn1nc(C(=O)N2Cc3cnn(Cc4ccc(F)cc4)c3C2)ccc1=O [CBK306855],45.9897
5,O=C(O)c1ccc(NS(=O)(=O)c2cc(C(=O)O)ccc2Br)cc1 [CBK113164],66.7762
6,CCOC(=O)c1cnc2ccc(C(CCOCc3ccccc3)OCc3ccccc3)cc2c1O (stereo not drawn) [CBK018405],28.5793
7,CC(=O)c1ccc(NC(=O)CSc2nnc(-c3ccc4ccccc4n3)s2)cc1 [CBK269205],73.8926
8,CCCn1cc(CN2CCC(O)(c3ccc(C)cc3)CC2)cn1 [CBK282737],122.665
9,O=C(c1ccc(Oc2ccccc2)cc1)N1CCC2(CCN(Cc3ccccc3)C2)C1 (stereo not drawn) [CBK136833],90.2913
10,Cc1nn2c(=O)[nH]ncc2c1-c1ccccc1C(=O)N(C(C)C)C(C)C [CBK307043],77.9126
11,CCC(=O)N1CCN(c2nc3ccc(OC)cc3s2)CC1 [CBK287721],75.541
12,O=C(Cc1c[nH]c(=O)[nH]c1=O)Nc1ncc(Cc2ccc(F)cc2)s1 [CBK285674],97.2285
13,C=C(C)CN1CCN(C(C(=O)O)c2c[nH]c3cc(F)ccc23)CC1 (stereo not drawn) [CBK286835],132.967
14,O=C(NC1Cc2ccccc2C1)c1ccc2ccccc2n1 [CBK200355],106.159
15,Cc1ccc(C2(CNC(=O)CCc3ccncc3)CCOCC2)cc1 [CBK281574],111.02
16,Cc1cc(C)c(NC(N)=O)c(C)c1 [CBK086399],67.0511
17,O=C(O)c1ccc(CSc2nnc(-c3ccncc3)o2)cc1 [CBK266352],125.895
18,Cc1cc(CN2CCN(CCc3ccccc3)CC2)no1 [CBK126426],111.991
19,O=C(C1CCCC1)N1CC(n2nc(-c3cccs3)ccc2=O)C1 [CBK283345],94.5781
20,Cc1ccc(C(=O)O)cc1NS(=O)(=O)c1ccc2c(c1)OCCO2 [CBK297497],97.4631
21,O=C(NCc1c(Cl)cccc1Cl)N1CCCCC1CO (stereo not drawn) [CBK156184],94.4595
22,Cc1nc2ncnn2c(C)c1CCC(=O)OCc1ccc(C#N)cc1 [CBK305838],42.4229
23,O=[N+]([O-])c1cc(S(=O)(=O)N2CCCCCC2)ccc1NCc1ccccc1 [CBK262804],91.9262
24,O=C(c1cccs1)N1CCC(n2c(=O)oc3ccccc32)CC1 [CBK284347],92.5344
25,CCCc1nc(NC(c2cccc(C)n2)C2CC2)c2cnn(C)c2n1 (stereo not drawn) [CBK306795],100.209
26,Cc1[nH]c2ccccc2c1/C=N/c1ccc(S(N)(=O)=O)cc1 [CBK261352],56.5463
